Assay results from PubChem BioAssay AID2202238 (Ras Initiative Chemistry Research Team, Frederick National …, 2025).
The other results are listed elsewhere or left out. The main result of the screen is listed elsewhere. These columns were measured beside it and carry no call.

Molecular target: GTPase KRas (Homo sapiens) (UniProt P01116)
Assay: Fragment capture on engineered cysteines, share of protein labelled (AID 2202238)
Parameters: protein at 5 µM with 500 µM competing thiol for 1.5 h
Conditions: KRAS G12D cysteine mutants, disulfide tethering, MALDI-TOF labeling, stronger effect = higher value, fragment at 500 µM
[1] = measured here: G60C mutant labeling
[2] = measured here: G75C mutant labeling
[3] = measured here: H94C mutant labeling
[4] = measured here: I36C mutant labeling
[5] = measured here: L120C mutant labeling
[6] = measured here: M67C mutant labeling
[7] = measured here: M72C mutant labeling
[8] = measured here: N26C mutant labeling
[9] = measured here: N86C mutant labeling
[10] = measured here: P121C mutant labeling
[11] = measured here: S122C mutant labeling
[12] = measured here: S136C mutant labeling

Sequence of UniProt P01116 (P01116 whole entry, looked up, the tested form may be a part): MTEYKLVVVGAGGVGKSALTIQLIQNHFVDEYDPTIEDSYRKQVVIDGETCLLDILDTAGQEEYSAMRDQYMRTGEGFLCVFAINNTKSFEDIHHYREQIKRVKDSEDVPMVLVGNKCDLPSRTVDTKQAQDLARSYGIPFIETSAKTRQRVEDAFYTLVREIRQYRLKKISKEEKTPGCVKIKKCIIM

Structure (SMILES) | percent labeling [1] [%] | percent labeling [2] [%] | percent labeling [3] [%] | percent labeling [4] [%] | percent labeling [5] [%] | percent labeling [6] [%] | percent labeling [7] [%] | percent labeling [8] [%] | percent labeling [9] [%] | percent labeling [10] [%] | percent labeling [11] [%] | percent labeling [12] [%]
Cc1nc2c3ccccc3nn2c(C)c1CCC(=O)NCCS | 27.6 | 10.7 | 16.8 | 21.4 | 13.6 | 30.1 | 12.7 | 26.2 | 11.6 | 16.3 | 8.1 | 18.6
O=C(CCS)N1CCC(n2ccnn2)CC1 |  | 14.3 | 29.6 | 43.5 | 31.2 | 37.8 | 25 |  | 31.5 | 40.6 | 40.4 | 60.3
O=C(CCS)NCCn1cnc2ccccc2c1=O |  | 9.6 | 31.2 | 42.4 | 31.5 | 32.4 | 20.2 |  | 20.6 | 31.9 | 31.5 | 48.4
Cc1sc(-n2cccc2)c(C(=O)NCCS)c1C | 54.1 | 17.5 | 24.6 | 13.1 | 23.6 | 26.7 | 33.9 | 31.8 | 16 | 21.1 | 16.2 | 31.4
O=C(CCS)NCc1ncc2c(n1)CCOC2 |  | 4 | 11.9 | 21.5 | 24.2 | 11.8 | 4.2 |  | 4.3 | 10.4 | 9.8 | 16
O=C(CCS)N1CCC2=C(C=NS(=O)(=O)N2)C1 |  | 8.6 | 14.2 | 21.2 | 18.3 | 20.5 | 7.3 |  | 9.1 | 26.4 | 30.7 | 22.4
CN(C)CC1COC2(CCCC2)CN1C(=O)CCS (stereo unspecified) |  | 10 | 40.8 | 43.2 | 28.2 | 43.5 | 20.5 |  | 17.9 | 31.7 | 27.3 | 53.8
CCc1cc(C(=O)NCCS)ccc1Br | 38.3 | 15.4 | 9.9 | 7.4 | 18.9 | 12.6 | 24.7 | 28 | 13.1 | 20.1 | 11 | 22
O=C(NCCS)c1cc2scc(Br)c2[nH]1 | 33.2 | 15.3 | 16 | 11.3 | 15 | 10.8 | 28.1 | 22.6 | 11.6 | 11.7 | 8.2 | 12.9
Cc1ccn(-c2ccccc2NC(=O)CCS)n1 |  | 15.2 | 39 | 39 | 29.7 | 34.5 | 32.9 |  | 39.7 | 33.3 | 32.3 | 51.8
Cc1cc(-n2cccc2)ccc1C(=O)NCCS | 31.2 | 9.8 | 21.9 | 12.5 | 16.7 | 14.6 | 34.3 | 30.7 | 8.4 | 19.2 | 11.7 | 17.8
CCCn1c(C(=O)NCCS)cc2ccccc21 | 33.6 | 11.1 | 12.4 | 5.2 | 10.8 | 4.3 | 28 | 28 | 6 | 13.4 | 4.4 | 10.3
O=C(CCS)NCC(=O)NC1CCC(O)CC1 (stereo unspecified) |  | 4.8 | 22.5 | 29.9 | 40.3 | 27.9 | 11.7 |  | 25.4 | 33.6 | 32 | 41.6
O=C(CC1CC(=O)Nc2ccccc21)NCCS (stereo unspecified) | 43.7 | 16.3 | 35.5 | 30.8 | 30 | 42.5 | 24.2 | 39.5 | 32.1 | 32.4 | 34 | 47.2
Cc1onc(-c2ccsc2)c1C(=O)NCCS | 40.2 | 12.8 | 29.1 | 18.6 | 22.5 | 25.4 | 28.9 | 32.7 | 18.1 | 20.4 | 18.9 | 33.6
O=C(CCc1ncc[nH]1)NCCS | 28.4 | 23.2 | 28.4 | 26.1 | 30 | 27.8 | 15.4 | 30.4 | 26.5 | 34.3 | 26.6 | 41
CC1CCC(C(=O)NCCS)C2C(=O)N(c3ccccc3)C(=O)C12 (stereo unspecified) | 35.8 | 24.1 | 26.1 | 14.3 | 32.5 | 61.9 | 37.1 | 21.9 | 15.5 | 16.8 | 16.5 | 37.3
O=C(NCCS)C1CCC(c2ccccc2)CC1 (stereo unspecified) | 24.1 | 11.1 | 15.1 | 9.8 | 11.1 | 6.9 | 40.9 | 28.8 | 5.5 | 10.3 | 10.7 | 15.5
O=C(CCS)NC1CC(N2CCC(C(F)(F)F)CC2)C1 (stereo unspecified) |  | 12.5 | 34.2 | 34.8 | 28.3 | 39.1 | 17 |  | 20.6 | 32.9 | 33.5 | 46.5
Cc1ccc(C(=O)NCCS)cc1N1C(=O)C2CCCCC2C1=O (stereo unspecified) | 24.1 | 10.6 | 16.2 | 11.7 | 26.3 | 10.7 | 28.5 | 28.1 | 13.4 | 11.1 | 11.8 | 26.9
O=C(CCS)N1CCC(c2nn(-c3ccccc3)cc2F)CC1 |  | 21.1 | 23.6 | 22 | 13.7 | 27.1 | 28.5 |  | 15.8 | 17.7 | 10.5 | 28.8
Cn1nc2c(c1NC(=O)CCS)CCCC2 |  | 17.6 | 38.6 | 44.9 | 23.7 | 35.1 | 31.7 |  | 35.4 | 38.8 | 31.4 | 49.2
Cc1c(Br)ccc2nc(C(=O)NCCS)cn12 | 10.7 | 6.3 | 7.5 | 9.9 | 8.2 | 11.1 | 35 | 20.7 | 5.3 | 26.3 | 4.9 | 14
